Laboratory results published in article PMC4336329 (PLoS ONE, 2015).
About 14,000 (4.5%) of roughly 310,000 compounds showed an effect of 50% or more. The effect is printed as a negative number. The list shows a part of the results.

Target: human ether-à-go-go-related gene (hERG) potassium channel (human, UniProt Q12809)
Assay: primary screen, population patch clamp on CHO cells stably expressing hERG
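Also: peak tail current of the secondary pulse compared with the same well before compound.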

human ether-à-go-go-related gene (hERG) potassium channel, sequence (Q12809 whole entry, looked up): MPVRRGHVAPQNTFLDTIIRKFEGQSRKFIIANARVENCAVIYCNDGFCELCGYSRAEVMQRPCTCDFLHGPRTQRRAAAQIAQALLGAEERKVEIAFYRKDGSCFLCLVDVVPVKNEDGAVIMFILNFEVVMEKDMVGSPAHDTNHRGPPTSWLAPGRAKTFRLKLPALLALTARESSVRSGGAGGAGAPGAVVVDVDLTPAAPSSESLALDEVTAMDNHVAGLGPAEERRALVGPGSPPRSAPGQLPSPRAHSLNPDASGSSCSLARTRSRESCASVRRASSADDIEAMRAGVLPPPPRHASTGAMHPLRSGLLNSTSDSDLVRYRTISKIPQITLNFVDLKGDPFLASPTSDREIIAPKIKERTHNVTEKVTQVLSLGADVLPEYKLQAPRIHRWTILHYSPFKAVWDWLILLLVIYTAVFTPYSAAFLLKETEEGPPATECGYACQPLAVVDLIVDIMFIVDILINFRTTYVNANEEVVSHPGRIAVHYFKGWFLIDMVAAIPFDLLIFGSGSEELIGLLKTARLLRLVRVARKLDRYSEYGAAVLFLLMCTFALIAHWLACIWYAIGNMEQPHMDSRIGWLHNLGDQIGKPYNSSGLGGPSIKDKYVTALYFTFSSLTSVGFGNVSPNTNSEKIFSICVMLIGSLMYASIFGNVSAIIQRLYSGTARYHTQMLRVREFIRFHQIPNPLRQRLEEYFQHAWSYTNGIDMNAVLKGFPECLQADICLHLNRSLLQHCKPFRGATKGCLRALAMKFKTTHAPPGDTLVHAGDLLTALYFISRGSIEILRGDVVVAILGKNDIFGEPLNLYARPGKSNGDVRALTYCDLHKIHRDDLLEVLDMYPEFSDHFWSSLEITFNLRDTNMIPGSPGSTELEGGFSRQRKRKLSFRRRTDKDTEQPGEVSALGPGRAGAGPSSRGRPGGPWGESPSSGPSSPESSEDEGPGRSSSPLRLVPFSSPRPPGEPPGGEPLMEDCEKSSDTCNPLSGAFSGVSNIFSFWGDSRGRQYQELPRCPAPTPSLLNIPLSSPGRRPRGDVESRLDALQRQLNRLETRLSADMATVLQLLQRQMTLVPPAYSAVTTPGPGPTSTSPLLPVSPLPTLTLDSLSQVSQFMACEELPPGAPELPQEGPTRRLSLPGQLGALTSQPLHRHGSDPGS

Compound	hERG current change (%, negative = inhibition) at 10uM [%]
CCOc1cc(N2CCOCC2)c(OCC)cc1NC(=O)CSc1nc(N)cc(=O)[nH]1	10.4
COc1cccc(C(=O)Nc2nnc(S(=O)(=O)N(C)c3ccccc3)s2)c1	12.6
Cc1cccc(C(=O)OCCN2CCOCC2)c1.Cl	12.3
O=C(Nc1ccccc1)c1ccc(NC2CCCCC2)c(S(=O)(=O)N2CCOCC2)c1	6.2
O=C(NCCN1CCOCC1)c1ccc2ccccc2n1	13.8
Cc1ccnc2nc(C(=O)NC3=NCCS3)nn12	11.8
S=C1N(c2ccccc2)CN(CCN2CCOCC2)CN1c1ccccc1	23
CCCCCC(=O)Nc1ccc2oc(-c3cccnc3)nc2c1	-6.74
O=C(CSc1n[nH]c(-c2ccncc2)n1)Nc1ccc(Br)cc1	-2.1
CCC(C)[C@@H](CN)NCC1(c2ccccc2)CC1 (stereo partly shown)	20.9
Cc1ccc(NC(=O)c2ccc(CNS(=O)(=O)c3cccc(C(F)(F)F)c3)cc2)cc1	-5.08
O=C1C(C=NCc2ccncc2)=C(O)c2ccccc21	-9.12
CN1C2CCC1CC(NC(=O)c1ccc([N+](=O)[O-])cc1)C2 (stereo not shown)	3.81
O=C(/C=C/c1ccc(Cl)cc1Cl)Nc1cccc(S(=O)(=O)NC2=NCCC2)c1	25.8
CC(C(=O)Nc1nncs1)N1C(=O)C2C3C=CC(C3)C2C1=O (stereo not shown)	-0.959
CC(=O)C1=C(O)C(=O)N(c2ccc(C(=O)O)cc2)C1c1ccccc1 (stereo not shown)	14.1
COc1cc(OC)cc(C(=O)N2CCC(C(=O)N3CCOCC3)CC2)c1	17
Cc1cccc(OCC(=O)Nc2ccccc2-c2ccccc2)c1	9.76
O=C(CN1CCOCC1)Nc1ccc(OCc2ccccc2)cc1	-21.3
COc1cc(C2C3=C(CCCC3=O)Nc3[nH]n(-c4ccccc4)c(=O)c32)ccc1OC(C)=O (stereo not shown)	14.2
CN(C)c1ccc(/C=C(\C#N)C(=O)c2ccccc2)cc1	13.3
NC(=S)N/N=C/c1cc([N+](=O)[O-])ccc1Cl	30.4
O=C(CN1C(=O)COc2ccccc21)NCCCN1CCOCC1	20.3
CNC(=O)/C(=C/c1ccc2c(c1)OCO2)NC(=O)c1ccc(Br)cc1	-63.4
O=C(CSc1nc2[nH]ncc2c(=O)n1-c1ccccc1Cl)N1CCCC1	-7.31
